According to PMC4336329 (PLoS ONE, 2015):
Among all 310,000 compounds or so, about 2,200 (0.71%) showed an effect of 50% or more. Effects have a minus sign here. The list shows a part of the results.

molecular target: human ether-à-go-go-related gene (hERG) potassium channel (human, UniProt Q12809); experiment: primary screen, population patch clamp on CHO cells stably expressing hERG
Sequence (Q12809 whole entry, looked up): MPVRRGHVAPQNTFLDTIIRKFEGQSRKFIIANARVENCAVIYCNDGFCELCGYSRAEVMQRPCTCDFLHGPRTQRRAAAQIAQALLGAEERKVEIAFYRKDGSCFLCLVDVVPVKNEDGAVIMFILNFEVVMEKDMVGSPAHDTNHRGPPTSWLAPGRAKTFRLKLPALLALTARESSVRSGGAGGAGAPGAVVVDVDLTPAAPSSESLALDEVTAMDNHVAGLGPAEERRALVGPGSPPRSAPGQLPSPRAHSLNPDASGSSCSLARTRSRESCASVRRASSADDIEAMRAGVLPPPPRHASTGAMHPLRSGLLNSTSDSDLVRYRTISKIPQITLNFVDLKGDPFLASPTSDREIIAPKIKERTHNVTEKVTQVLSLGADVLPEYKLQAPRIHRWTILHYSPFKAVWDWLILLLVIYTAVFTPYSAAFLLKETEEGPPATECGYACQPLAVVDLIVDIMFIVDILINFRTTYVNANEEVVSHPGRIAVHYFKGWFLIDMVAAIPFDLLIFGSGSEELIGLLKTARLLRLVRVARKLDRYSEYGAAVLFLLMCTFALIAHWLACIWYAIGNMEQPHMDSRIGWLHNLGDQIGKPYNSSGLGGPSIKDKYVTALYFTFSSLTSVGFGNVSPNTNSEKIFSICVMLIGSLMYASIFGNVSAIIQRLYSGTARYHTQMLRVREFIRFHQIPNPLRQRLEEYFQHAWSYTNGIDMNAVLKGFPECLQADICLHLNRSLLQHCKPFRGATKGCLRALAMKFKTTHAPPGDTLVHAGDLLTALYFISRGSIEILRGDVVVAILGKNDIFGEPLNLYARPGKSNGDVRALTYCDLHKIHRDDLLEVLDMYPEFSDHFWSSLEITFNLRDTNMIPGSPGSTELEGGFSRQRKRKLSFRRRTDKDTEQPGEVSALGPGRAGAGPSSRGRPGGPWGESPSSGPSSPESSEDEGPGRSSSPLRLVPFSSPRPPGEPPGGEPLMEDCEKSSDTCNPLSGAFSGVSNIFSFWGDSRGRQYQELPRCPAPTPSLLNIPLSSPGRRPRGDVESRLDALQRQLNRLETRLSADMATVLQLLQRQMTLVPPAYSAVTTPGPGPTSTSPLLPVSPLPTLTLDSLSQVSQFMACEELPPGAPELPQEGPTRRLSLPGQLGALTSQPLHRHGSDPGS

| Structure (SMILES) | hERG current change (%, negative = inhibition) at 1uM |
| --- | --- |
| COc1cc2c(cc1NC(=O)CN1CCN(S(=O)(=O)c3ccc(C)cc3)CC1)oc1ccccc12 | 6.22% |
| O=C(NC1CCCCC1)C1CCC(CNS(=O)(=O)c2cccc3nsnc23)CC1 (stereo not shown) | 17% |
| Cc1ccc(-c2nn(C)c(=O)c3ccccc23)cc1S(=O)(=O)N1CCOCC1 | -20.6% |
| CC(C(=O)Nc1ccc(S(=O)(=O)N2CCCC2)cc1)N1CCN(C(=O)c2ccco2)CC1 (stereo not shown) | 4.96% |
| Cc1c(C(=O)Nc2ccc(S(=O)(=O)Nc3ncccn3)cc2)oc2ccccc12 | 13.5% |
| Cc1ccc(S(=O)(=O)N2CCOCC2)cc1C(=O)Nc1ccccc1N1CCCC1 | -27.3% |
| CCCCCOC(=O)Cn1c(=O)c2c(nc(N3CCOCC3)n2C)n(C)c1=O | -19.7% |
| COc1ccc(Cc2nnc(SCC(=O)N3CCN(c4ccccc4)CC3)o2)cc1 | -6.76% |
| O=S1(=O)NC(=NCCOCCO)c2ccccc21 | 6.35% |
| COc1ccc(OCC(O)COc2ccc(C(=O)O)cc2)cc1 (stereo not shown) | 8.21% |
| COc1cccc(NC(=O)c2ccc(NC(C)=O)cc2)c1 | 11.5% |
| CC1Cn2c(nnc2-c2ccc(F)cc2)S1 (stereo not shown) | -1.74% |
| CCCCNC(=O)c1ccc(CNS(=O)(=O)c2ccc(Br)cc2)cc1 | 10.6% |
| COc1ccc(C2C(C(=O)NCc3cccnc3)c3cc(OC)c(OC)cc3C(=O)N2C)cc1 (stereo not shown) | 21% |
| COC(=O)C1CCN(C(=O)NC2CCCCC2)CC1 | 9.37% |
| Cc1noc(C)c1CSc1nnc(-c2ccccc2F)n1CCc1ccccc1 | -15.8% |
| O=C(CN1C(=O)NC2(CCCCCC2)C1=O)N1CCN(c2ccc(F)cc2)CC1 | -5.24% |
| CCSc1nc2ccccc2n1CC(N)=O | 8.06% |
| O=C(c1cnn2c(C(F)(F)F)cc(-c3ccccc3)nc12)N1CCCc2ccccc21 | 6.05% |
| CCOc1ccc(NC(=O)Cn2nnc(C(=O)NCc3cccs3)c2N)cc1 | 16.9% |
| CCOCCCNS(=O)(=O)c1ccc(NC(=O)N2c3ccccc3Sc3ccccc32)cc1 | 9.57% |
| COc1ccc(C(C(=O)NC2CCCC2)N(C(=O)c2ccco2)c2ccccc2OC)cc1 (stereo not shown) | 10.5% |
| Cc1ccc(/C=C2\CCOC2=O)cc1 | 2.64% |
| COCCCNC(=O)c1c(NC(=O)C2COc3ccccc3O2)sc2c1CCCC2 (stereo not shown) | 17.1% |
| Cc1c(/C=N/NC(N)=O)c2ccccn2c1C(=O)c1ccncc1.Cl | -19.4% |
| CCCCNC(=O)c1cn(CC)c2ccc(S(=O)(=O)N3CCCCCC3)cc2c1=O | 15.6% |
| CN(C(=O)c1cc(-n2cnnc2)ccc1Cl)c1ccccc1 | 14% |
| Cc1cc(NC(=O)C2CCCN(S(=O)(=O)c3c(C)noc3C)C2)n[nH]1 (stereo not shown) | -7.28% |

| Structure (SMILES) | hERG current change (%, negative = inhibition) at 1uM |
| --- | --- |
| CCN=C1S/C(=C/c2ccc(-c3ccc(Cl)cc3C(=O)O)o2)C(=O)N1CC | 18.3% |
| CN(C)CCNC(=O)C(=O)c1c(-c2ccccc2)cc2ccccn12 | 14.9% |
| O=C(COc1ccc2c(-c3ccccc3)cc(=O)oc2c1)N[C@H](Cc1c[nH]c2ccccc12)C(=O)O | -10.5% |
| O=C(NN=C1c2ccccc2-c2ccccc21)c1ccccc1 | -1.71% |
| COC(=O)NC1(C(F)(F)F)C(=O)Nc2c1c(=O)n(C)c(=O)n2C (stereo not shown) | 12% |
| CCN(Cc1cc2ccccc2[nH]c1=O)S(=O)(=O)c1ccccc1 | 10.3% |
| CC(=O)Nc1ccc(Sc2ccccc2C(=O)O)cn1 | 11.4% |
| Clc1ccccc1CSc1nnc(-c2cccnc2)n1Cc1ccco1 | -14.2% |
| NC(CO)C(O)c1ccc([N+](=O)[O-])cc1 (stereo not shown) | 10.7% |
| O=C1N=C(N2CCCCC2)S/C1=C\c1ccc(Cl)cc1 | 8.58% |
| COc1cccc(C(=O)COc2cccc(NC(=O)c3ccco3)c2)c1 | 1.82% |
| CN(C)CCNC(=O)C(c1ccccc1)c1ccccc1 | 4.76% |
| Cn1c2ccccc2n2c(=O)c(=O)n(CC(=O)c3ccc(Cl)cc3)nc12 | 5.96% |
| Cc1cccc(-c2nc(CN3CCN(Cc4cccc(F)c4)CC3)c(C)o2)c1 | 2.78% |
| Cc1cc(Nc2c(C)n(C)n(-c3ccccc3)c2=O)n2c(nc3cc(F)c(F)cc32)c1C#N | 9.44% |
| COc1ccc(CCNC(=O)CN(C)S(=O)(=O)c2ccc(OC)cc2)cc1 | 8.46% |
| O=C(c1ccco1)N1CCN(C(=O)C23CC4CC(CC(C4)C2)C3)CC1 | 3.85% |
| C=CCn1c(=O)/c(=C/c2ccc(O)cc2)s/c1=C(/C#N)c1nnc2n1CCCCC2 | 7.03% |
| COc1cccc(S(=O)(=O)Nc2ccc3c(c2)OCCO3)c1 | 2.18% |
| Cc1ccc(S(=O)(=O)Oc2ccc(/C=N/NC(=O)c3nn(C)cc3[N+](=O)[O-])cc2)cc1 | 3.14% |
| Cc1cc(OCC(=O)OCC(=O)N2CCc3ccccc3C2)ccc1Cl | 15.7% |
| CCN(CC)C(=O)CN1CCN(c2ccccc2F)CC1.Cl | 16.1% |
| Cn1c(SCC(=O)NNC(=O)Cc2ccccc2)nnc1-c1ccc(Cl)cc1 | 1.97% |
| O=C(NNC(=O)c1cc(Cl)nc2ccccc12)c1ccccc1F | 16.1% |
| COc1ccc(N(CC(=O)NCCc2cccc(C)c2)S(=O)(=O)c2c(C)noc2C)cc1 | 10.7% |
| Cc1ccc(S(=O)(=O)N(C)C)cc1NC(=O)COC(=O)/C=C/c1ccc2ccccc2n1 | 8.57% |
| Cc1ccc(S(=O)(=O)NC(C(=O)Oc2ccc3c(C)c(Cl)c(=O)oc3c2)c2ccccc2)cc1 (stereo not shown) | 8.73% |
